From the RNAGym collection of RNA variant scans (doi:10.1073/pnas.2313332121)
This sample is rich in variants without activity.

B1: TPR 5TU (parent)
chain: GGAUCUUCUCGAUCUAACAAAAAAGACAAAUCUGCCACAAAGCUUGAGAGCAUCUUCGGAUGCAGAGGCGGCAGCCUUCGGUGGCGCGAUAGCGCCAACGUUCUCAACUAUGACACGCAAAACGCGUGCUCCGUUGAAUGGAGUUUAUCAUG

Variants of: B1
Assay: polymerase ribozyme fitness, log enrichment relative to wild type (log ratio); higher = more active; in vitro selection for triplet polymerase activity
Procedure, shortened: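 After PCR construction and transcription, each subunit's mutant library from a heterodimeric triplet polymerase ribozyme was annealed with a biotinylated primer, the partner subunit and triplets. Incubation was frozen, at −7 °C, and extended constructs were gel-excised, bound to streptavidin beads and amplified by RT-PCR, in one selection round done in triplicate. Fitness is the logarithm of a genotype's enrichment divided by that of the wild type, from inverse-variance-weighted replicate averages of Illumina-sequenced inputs and outputs. The base of the logarithm is 2, and genotypes needed ≥10 input reads and ≥1 read per output.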

| Variant | polymerase ribozyme fitness (log ratio) |
| --- | --- |
| GGAUCUUCUCGAUCUAACAAAAAAGACAAAUCAGCCACAAACCUUGAGAGCAUUUACGGAUGCAGAGGCGGCAGCCUUCGGUGGCGCGAUAGCGCUAACGUUCUCAACUAUGACACGCAAAACGCGUGCUCCGUUGAAUGGAGUUUAUCAUG | ≤ -4.2 |
| GGAUCUUCUCGAUCUAACAAAAAAGACAAAUCAGCCACAAAGCUUGAGAGCGUCUUCGGAUGCAGAGGCGGCAGCCUUCGGUGGCGUGAUAGCGCCAACGUACUCAACUAUGACACGCAAAACGCGUGCUCCGUUGAAUGGAGUUUAUCAUG | ≤ -4.2 |
| GGAUCUUCUCGAUCUAACAAAAAAGACAAAUCGGCCACAAAGCUUGAGGGCAUAUUAGGAUGUAGAGGCGGUAGCCUUCGGUGGCGAGAUAGCGCCAACGUGCUCAUCUAUGACACGCAAAACCCGUGCUCCGUUGAAUGGAGUUUAUCAUG | ≤ -4.2 |
| GGAUCUUCUCGAUCUAACAAAAAAGACAAAUCAGCCACAAAGCUUGAGAGCAUCUUCGGAUGCAGAGGCGGCAGCCUUCGGUGGCGCGGUAGCGCCAACGUUCUCAACUAUGACUCGCAAAACGCGUGCUCCGUUGAAUGGAGUUUAUCAUG | ≤ -4.2 |
| GGAUCUUCUCGAUCUAACAAAAAAGACAAAUCCGCCACAAAGCUUGAGAGCAUCGUCGGAUGCAGAGGCGGCAGCCUUCGGUGGCGCGAUAGCGCCAACGUUCUCACCUAUGACAUGCAAAACGCGUGCUCCGUUGAAUGGAGUUUAUCAUG | ≤ -4.2 |
| GGAUCUUCUCGAUCUAACAAAAAAGACAAAUCCGCCACCAAGCUUGAGAGCAUCUUCGGAUGCAGAGGCGGCAACCUUCGGUGGCGCGGUAGCGUCAACGUUCUCAACUGUGACACGCAAAACGCGUGCUCCGUUGAAUGGAGUUUAUCAUG | ≤ -4.2 |
| GGAUCUUCUCGAUCUAACAAAAAAGACAAAUCCGUCACAAAGCUUGAGAGCAUCUUCGGAUGCAGAGGCGGCAGCCUUGGGUGGCGCGAUCGCGCCAACGUUCUCAAACAUGACACGCAAAACGCGUGCUCCGUUGAAUGGAGUUUAUCAUG | ≤ -4.2 |
| GGAUCUUCUCGAUCUAACAAAAAAGACAAAUCGGCCACAAAGCUUGAGUGCAUCUUCGGAUGCAGACGCGGCAACCUUCGGUGGCGCGAUAGCGCCAACGUUCUCAACUAUGACACGCAAAACGCGUGCUCCGAUGAACGGAGUUUAUCAUG | ≤ -4.2 |
| GGAUCUUCUCGAUCUAACAAAAAAGACAAAUCAGCCACAAAGCUUGAGAGCGUCUUCGGAUGCAGAGGCGGCAGCCUUCGGUGGCGCGAUAGAGCCAACGUUCUCAACUAUGACACGCAAAACGCGUGCUCCGUUGAAUUGAGUUUAUCAUG | ≤ -4.2 |
| GGAUCUUCUCGAUCUAACAAAAAAGACAAAUCAGCCACAAAGCUUGAGAGCAUCUUCGGAUGCAGAUGCGGCAGCCUUCGUUGGCGCGAUAGCGCGAACGUUGUCAACUAUGACACGCAAAACGCGUGCUCCGUUGAAUGGAGUUUAUCAUG | ≤ -4.2 |
| GGAUCUUCUCGAUCUAACAAAAAAGACAAAUCAGCCACAAAGCUUGAGAGCAUCAUUAGAUGCAGAGGCCGCAGCCUUCGGUGGCGCGAUAGCGUCAACGUUCUCAACUAUGACACGCAAAACGCGUGCUCCGUUGAAUGGAGUUUAUUAUG | ≤ -4.2 |
| GGAUCUUCUCGAUCUAACAAAAAAGACAAAUCCGCCAUAAAGCUUGAGAGCAUCUUCGGAUGCAGCGGCGGCAGCCGUCGGUGGAGCGAUAGCGCCAUCGUUCUUAACUAUGACACGCAAAACGCGUGCUCCGUUGAAUGGAGUUUAUCAUG | ≤ -4.2 |
| GGAUCUUCUCGAUCUAACAAAAAAGACAAAUCCGCCACAAAGAUUGAGAGCAUCUUCGGAUGCAGAGGCGGCAGCCUUCGGUGGCGCGAUAGCGCCAACGUUCUCAACUAUGACACGCAAAACACGUGCUCCGUUGAAUGGAGUUUAUCAUG | ≤ -4.2 |
| GGAUCUUCUCGAUCUAACAAAAAAGACAAAUCCGCCACAAAGCUUGAGAGCAUCUUCGGAUGCAGAGGCGGCAGCCUUCGGUGGCGAGAUAGCGCCAACGUUCUCAACUAUGACACGCAAAACGCGUGCUCCGUUGCAUGAAGUUUAUCAUG | ≤ -4.2 |
| GGAUCUUCUCGAUCUAACAAAAAAGACAAAUCCGCCACCAAGCUUGAGAGCAUCUUCGUAUGCAGAGGCGGCAGCCUUCGGUGGCGCGAUAGCGCCAACGUUCUCAACUAUGACACGCAAAACGCGUGCUCCGUUGAAUGGAGUUUAUCAUG | ≤ -4.2 |
| GGAUCUUCUCGAUCUAACAAAAAAGACAAAUCGGCCACAAAGCUUGAGAGCAUUUUCGGAUGCAGAGGCGGCAGCCUUCGGUGGCGCGCUAGCGCCAACGUUCUCAACUAUGACACGCAAAACGCAUGCUCCAUUGAAUGGAGUUUAUCAUG | ≤ -4.2 |
| GGAUCUUCUCGAUCUAACAAAAAAGACAAAUCAGCCACAAAGCUGGAGAGCAUCUUCGGACGCAGAGGCGGCAGCCUUCGGUGGCGCGAUAGCGCCAACGUUCUCAACUAUGACACGCAAAACGCGUGCUCCGUUGAAUGGAGUUUAUCAUG | ≤ -4.2 |
| GGAUCUUCUCGAUCUAACAAAAAAGACAAAUCAGACACAAAGCUUGAGAACAUCUUCGGAUGCAGAGGCGGCAGCCUUCGGUGGCGUGAUAGCGCCAAAGUUCUCAACUAUGACACGCAAAACGCGUGCUCCGUUAAAUGGAGUUUAUCAUG | ≤ -4.2 |
| GGAUCUUCUCGAUCUAACAAAAAAGACAAAUCCGCCACAAAGCUUGAGAGCAUCUUCGGAUGCAGAGGCGGCGGCCGUCGGUGGCGCGAUAGCGCUAACGUUCUCAACUAUGACACGCAAAACGCGUGCUCCGUUGAAUGGAGUUUAUCAUG | ≤ -4.2 |

| Variant | polymerase ribozyme fitness (log ratio) |
| --- | --- |
| GGAUCUUCUCGAUCUAACAAAAAAGACAAAUCAGCCACAAAGCUUGAGAGCAUCUUCGGAUGCACAGGCGGCAGCCUUCGGUGGCGCGACAGCGCCAACGUUCUCAACUAUGACACGCAAAACGCGUGCUCCGUUGAAUGGAGUUUAUCAUG | ≤ -4.2 |
| GGAUCUUCUCGAUCUAACAAAAAAGACAAAUCAGCCACAAAGCUUGAGAGCAUCUUCGGAUGCAGAGGCCGCAGCCUUCGGUGGCGCGAUAGCGCCAACGUUCUCAACUAUGACACGGAAAACGCGUGCUCCGUUGAAUGGAGUUUAUCAUG | ≤ -4.2 |
| GGAUCUUCUCGAUCUAACAAAAAAGACAAAUCCGCCACAAAGCUUGAGAGCAUCUUCGGAUGCAGAGGCGGCAGCCUUCGGUGGCGCAAUAGCGCCAACGUUCUCAACUAUGACACGCAAAACGCGUGCUCCGUUGAAUGGAGUUUAUCAUG | ≤ -4.2 |
| GGAUCUUCUCGAUCUAACAAAAAAGACAAAUCGGCCACAACGCUUAAGAGCAUCUUCGGAUGCAGAAGCGGCAGCCUUCGGUGUCGCGAUAGCGCCAACGUUCUCAACUAUGACACGCAAAACUCGUGCUCCUUUGAAUGGAAUUUAUCAUG | ≤ -4.2 |
| GGAUCUUCUCGAUCUAACAAAAAAGACAAAUCAGCCACAAAGCUUGAGAGCAUCUUCGGAUGCAGAGACGUCAGCCUUCGGUGGCGCGAUAGCGCCAACGUUCUCCACUAUGACACGCAAAACGCGUGCUCCGUAGAAUGGAGUUUAUCAUG | ≤ -4.2 |
| GGAUCUUCUCGAUCUAACAAAAAAGACAAAUCAGCCACAAAGCAUGAGAGCAUGUUCCGCUGCAGAGGCGGCAGCCUUAGGUGGCGCGAUAGCGACUACGUUCUCAACUAUGACACGCAAAACGCGUGCUCCGUUGAAUGGCGUUUAUCAUG | ≤ -4.2 |
| GGAUCUUCUCGAUCUAACAAAAAAGACAAAUCGGCCACAAAGUUUGAGAGCAUCUUCGGAUGCAGAGGCGGCAGCCUUCGGUGGCGCGAUAGUGCCAACGUUCUCAACUAUGAUACGCAAAACGCGUGCUCCGUUGAACGGAGUUUAUCAUG | ≤ -4.2 |
| GGAUCUUCUCGAUCUAACAAAAAAGACAAAUCGGCCACAAAGCUUGAGAGCGUCUUCGGAUGCAGAGGCGGCAGCCUUCGGUGGCGUGAUAGCGCCAACCUUCUCAACUAUGACACGCAAAACGCGUGCUCCGUUGAAUGGAGUUUAUCAUG | ≤ -4.2 |
| GGAUCUUCUCGAUCUAACAAAAAAGACAAAUCAGCCACAAAGCUUGAGAGCAUCUUCGGAUGCAGAGGCGACAGCCUUCGGUGGCGCGAUAGCGCCAACGUUCUCAACUAUGACACGGAAAACGCGUGCUCCGUUGAAUGGAGUUUAUCAUG | ≤ -4.2 |
| GGAUCUUCUCGAUCUAACAAAAAAGACAAAUCGGCCACAAAGCUUGAGAGUAACUUCGGAUGCAGAGGCGGCAGCUUACGGUGGCGCGAUAGCGCGAACGUUCUCAACUAUGACACGCAAAACGCGUGCUCUGUUGAAUGGAGUUUAUCAUG | ≤ -4.2 |
| GGAUCUUCUCGAUCUAACAAAAAAGACAAAUCCGCCACAAAGCUUGCGAGCAUCUUCGGAUGCAGAGGCGGCAGCCUUCGGUGGCGCGAUAGCGCCAACGUUCUCAACAAUGACACGCAAAACGCGUGCUCCGUUGAAUGGAUUUUAUCAUG | ≤ -4.2 |
| GGAUCUUCUCGAUCUAACAAAAAAGACAAAUCCGCCACAACGCUUGAGAGCAUCUUUGGAUGCAGGGGCGGCAGCCUUCGGUGGCGCGAUAGCGCCAACGUUCUCAACUAUGACACGCAAAACGCGUGCUCCGUUCAAUGGAGUUUAUCAUG | ≤ -4.2 |
| GGAUCUUCUCGAUCUAACAAAAAAGACAAAUCCGCCACAACGCUUGAGGGCAUCUUCGGAUGCAGAGGCGGCAGCCUUCGGUGGCGCGAUAGAGCCAACGUUCUCAACUAUGACACGCAGAACGCGUGCUCCGUUGAAUGGAGUUUAUCAUG | ≤ -4.2 |
| GGAUCUUCUCGAUCUAACAAAAAAGACAAAUCAGCCACAAAGCUUGAGAGCAUCUUCGGAUGCAGAAGCGGCAGCCUUCGGUGGCGUGAUAGCGCCAACGUUCUCUACUAUGACACGGAAAACGCGUACUCCGUUGAAUGGAGUUUAUCAUG | ≤ -4.2 |
| GGAUCUUCUCGAUCUAACAAAAAAGACAAAUCAGCCACAAAGCUUGAGAGCAUCUUCGGAUGCAGAGGCGGCAGCCUUCGGUGCCGCGAUAGCGGCAACGUUCUCAACUAUGACACGCAAAACGCGUGCUCCGUUGAAUGGAGUUUCUCAUG | ≤ -4.2 |
| GGAUCUUCUCGAUCUAACAAAAAAGACAAAUCAGCCCCAAAGCUUGAGAGCAUCUUCGGAUGCAGAGGCGGCAGCGUUCGGUGGCGCGAUAGCGCCAACGUUCUCAACUAUGACACGCAAAACUCGUGCUCCGUUGAAUGGAGUUUAUCAUG | ≤ -4.2 |
| GGAUCUUCUCGAUCUAACAAAAAAGACAAAUCCACCACAAAGCUUGAGAGCAUCUUCGAAUGCAGAGACGGCAGCCUUCGGUGGCGCGAUAGCGCCAACGUUCUCACCUAUGACACGCAAAACGCGUGCUGCGUUGAAUGGAGUUGAUCAUG | ≤ -4.2 |
| GGAUCUUCUCGAUCUAACAAAAAAGACAAAUCAGCCACAAAGCUUGAGAGCAUCUUCAGAUGCAGAGGCGGCAGUCUUCGGUGGCUAGAUAACGCCAACGUUCUCAACUAUGACACGCAAAACGCGUGCUCCGUUGAAUGGAGUUUAUCAUG | ≤ -4.2 |
| GGAUCUUCUCGAUCUAACAAAAAAGACAAAUCCGCCACAAAGCAUGAGAGCAUCUUCGGAUGCAGAGGCGGCAGCCUUCGUUGGGGCGAUAGCGCCUACGUUCUCAACUAAGACACGCUAAACGGGUGCUCCGUUGAAUGUAGUUUAUCAUG | ≤ -4.2 |
